The whole screen tested about 52,000 compounds, of which about 4,300 (8.3%) were called active. No stated cut-off is given here; in the data, active means survival mostly below about 52% (no sharp cut-off); inactive means mostly above about 56%. Some of the results follow.

In the test the test system is DeltatarO mutant. Briefly: growth inhibition of S. aureus wild type versus tarO mutant, primary screen, teichoic acid synthesis inhibitors, RN4220, OD600 (AID 463173). The settings on record: OD600, 18 h, hits give low values, screened at 18.75 µg/mL (by protocol).
For `C/C=N/N(c1ccccc1)c1ccccc1`, the survival was inactive: 83%.
The value for `COc1ccc(CC(=O)NC2CCN(S(=O)(=O)c3ccccc3C(=O)O)CC2)cc1OC` was inactive: 77%.
The value for `COc1ccc(S(=O)(=O)NCC(c2ccc(N(C)C)cc2)N2CCc3ccccc32)cc1` (stereo not drawn) was inactive: 78%.
Then `Cc1cccc(C(=O)Nc2ccc(C(=O)OCc3cc(=O)n4nc(C5CC5)sc4n3)cc2)c1`, with inactive: 84%.
For `COc1ccccc1N1CCN(C(=O)CCc2nnc3n(C)c(=O)c4sccc4n23)CC1`, the survival was inactive: 155%.
Consider `CCCCC(=O)OC1=C(C(C)=O)N(Cc2ccccc2)S(=O)(=O)c2ccccc21`, for which the survival was inactive: 67%.
The value for `COc1ccc(OC)c(Nc2ncnc3c2cnn3-c2cccc(Cl)c2)c1` was inactive: 76%.
The value for `Cc1ccn2c(Nc3ccc(F)cc3)c(-c3ccccn3)nc2c1` was inactive: 105%.
Then `O=C(O)CN1CC(=O)NC1=O`, with inactive: 95%; and `O=C(Nc1c(O)c2ccccc2oc1=O)c1cccc(F)c1`, with inactive: 93%.
Consider `CCc1ccccc1NC(=O)Cc1cn(C)c2ccccc12`, for which the survival is inactive: 86%.
The value for `CCOc1ccc(S(=O)(=O)Nc2cccc(C)c2)c2cccnc12` was inactive: 100%; that for `CCNC(=O)c1c(NC(=O)Cc2coc3cc(C)ccc23)sc2c1CCCC2` was inactive: 71%; that for `CCn1c(C(=O)NCc2ccc(OC)cc2)cc2sc(Cl)cc21` was active: 41%.
The value for `CCn1cc(C(=O)N2CCN(c3ccccc3)CC2)c(=O)c2cc(S(=O)(=O)N3CCCC3)ccc21` was inactive: 84%.
The value for `CCC(=O)N1CCc2cc(CNC(=O)Nc3cc(C)ccc3C)ccc21` was inactive: 84%.
Consider `Oc1c(C(c2ccccc2Cl)N2CCOCC2)sc2nc(-c3ccco3)nn12` (stereo not drawn), for which the survival was active: 0%.
As to `Cc1cccc(CNC(=O)CN2C(=O)C3CCCCN3c3ccc(C(=O)N4CCCC4)cc32)c1` (stereo not drawn), the survival was inactive: 101%.
The value for `COc1ccc(CCN2C(=O)CN=C2Nc2ccc(F)cc2)cc1OC` was inactive: 78%; that for `Cc1ccc(-c2nnc(Nc3ccc(Cl)c(Cl)c3)c3ccccc23)cc1S(=O)(=O)N(C)C` was inactive: 75%.
Then `Cc1ccc(C(=O)N2CCN(c3ccc(F)cc3)CC2)cc1NC(=O)c1nsc2ccccc12`, with inactive: 94%; and `Cc1cc(C)cc(NC(=O)c2ccc3c(O)c(S(=O)(=O)c4ccccc4)c(=O)[nH]c3c2)c1`, with inactive: 79%; and `Cc1c(Cl)cccc1NC(=O)CSc1ncc(S(=O)(=O)c2ccc(C(C)C)cc2)c(=O)[nH]1`, with inactive: 54%.
For the compound `COc1cc(Cl)c(C)cc1NC(=O)c1ccc(CN2C(=O)CCn3nc(C)cc32)cc1`, the survival was inactive: 75%.
Then `COC(=O)c1ccccc1NC(=O)C1(c2cccs2)CCOCC1`, with inactive: 83%.
`CCCCOC(=O)c1ccc(NC(=O)Cc2coc3c(C)c(C)ccc23)cc1`: the survival is inactive: 79%.
The value for `Cc1ccc(OCC(=O)N(Cc2ccco2)c2ccccn2)cc1` was inactive: 59%.
Then `CCNC(=O)C1CCCN(c2nnc(C)c3c(C)n(-c4ccc(C)cc4)nc23)C1` (stereo not drawn), with inactive: 78%; and `CCC(=O)Nc1ccccc1-c1nnn(CC(=O)N2c3ccccc3CC2C)n1` (stereo not drawn), with inactive: 92%.
As for `CCOC(=O)c1[nH]c(C)c(CCC(=O)NCc2cccc(C)c2)c1C`, the survival was inactive: 82%.
The value for `CCOC(=O)c1c(C)[nH]c(C)c1S(=O)(=O)N1CCCC(C(=O)Nc2ccc(C)c(N(C)C)c2)C1` (stereo not drawn) was inactive: 88%; that for `CCOC(=O)C1=NN(c2ccc(C)cc2)CC1C(=O)OC` (stereo not drawn) was inactive: 73%.
The value for `COc1cccc(NC(=O)CSc2nccn2Cc2ccc3c(c2)OCO3)c1` was inactive: 70%; that for `Cc1nc(-n2nc(C)c(Cc3ccc(Cl)cc3)c2C)sc1C(=O)N1CCCCC1C` (stereo not drawn) was inactive: 99%.
The value for `O=C(CSCc1ccccc1Cl)NCc1ccc(Cl)c(Cl)c1` was inactive: 144%.
Regarding `CCC(C)(C)N1CC(=O)N(Cc2ccccc2)C(c2ccc(OC)cc2)C1=O` (stereo not drawn), the survival was inactive: 78%.
Then `CC(=O)c1cccc(NC(=O)Cn2c(=O)oc3cc(S(=O)(=O)NC4CCCC4)ccc32)c1`, with inactive: 83%; and `NNC(=O)CCC(=O)Nc1ccccc1`, with inactive: 95%; and `CC(=O)c1ccc(Nc2nc3ccccc3nc2-n2nc(C)cc2C)cc1`, with active: 44%.
The value for `CC(=O)N1CCN(c2nc3c(C)ccc(Cl)c3s2)CC1` was inactive: 68%; that for `COc1ccc2c(c1)CCc1c(C(=O)Nc3c(C)nn(Cc4ccc(Cl)cc4)c3C)noc1-2` was inactive: 107%; that for `COc1ccc(/C=C\c2onc(C)c2S(=O)(=O)N2CCC(C(=O)Nc3cccc(C)c3C)CC2)cc1` was inactive: 68%.
The value for `CCOc1ccc(NC(=O)Cn2nnc(C(=O)NCc3cccs3)c2N)cc1` was inactive: 92%; that for `Cc1cccc(C)c1NC(=O)CCS(=O)(=O)c1ccc2c(c1)CC(C)N2C(=O)C1CC1` (stereo not drawn) was inactive: 81%; that for `CCOc1ccccc1Nc1nc(-c2ccc(C)cc2)c(CC(=O)O)s1` was inactive: 55%.
On to `O=c1[nH]c2ccc(NCc3ccc(-c4ccc(Cl)cc4)o3)cc2[nH]1`, for which the survival is inactive: 105%.
The value for `CCC1(CC)C(=O)N(C)C(=O)NC1=Nc1ccccc1` was inactive: 94%; that for `Cc1ccc(NC(=O)CN2C(=O)CC(c3ccc(F)cc3)=Nc3ccccc32)cc1F` was inactive: 74%.
In the case of `Nc1nnc(SCC(=O)N2CCN(c3ccccc3)CC2)s1`, the survival was inactive: 93%.
The value for `COc1ccc(OC)c(NC(=O)C(C)n2nc(C)c3c(C)n(-c4ccccc4)nc3c2=O)c1` (stereo not drawn) was inactive: 93%.
Then `COc1ccc(C2c3c(oc4ccc(Cl)cc4c3=O)C(=O)N2CCCN(C)C)cc1OC` (stereo not drawn), with inactive: 79%; and `COc1cccc(CNC(=O)CN2C(=O)N(c3c(C)cccc3C)S(=O)(=O)c3ccccc32)c1OC`, with inactive: 70%; and `CCC(=O)Nc1nc(-c2ccc(OC)cc2)cs1`, with inactive: 97%.
The value for `CCn1c(N2CCN(CC(=O)c3ccc(OC)cc3)CC2)nc2ccccc21` was inactive: 72%; that for `CCc1nn(CC(=O)N2CCN(c3cc(C)ccc3C)CC2)c(=O)c2cc3occc3n12` was inactive: 74%; that for `O=S(=O)(Nc1ccc(-c2ccc(N3CCCCCC3)nn2)cc1)c1cccc(C(F)(F)F)c1` was inactive: 117%.
`COc1ccc(CCNc2nc(SCc3ccc(F)cc3)nc3ccccc23)cc1OC`: the survival was inactive: 99%.
Then `CCc1ccc(-c2nc(SCC(=O)NCC3CCCO3)c(-c3ccc(F)cc3)[nH]2)cc1` (stereo not drawn), with inactive: 80%.

(Values after PubChem BioAssay AID463173 (ICCB-Longwood Screening Facility, Harvard Medical School, 2010).)
